To fix the notation:
T1: RBFOX1 RRM (Homo sapiens, UniProt Q9NWB1 109-208)
T1 sequence: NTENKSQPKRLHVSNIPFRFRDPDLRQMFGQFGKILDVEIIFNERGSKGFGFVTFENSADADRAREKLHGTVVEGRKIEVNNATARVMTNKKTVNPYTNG

B1: AGAACUG (DNA:RNA)
RNA: GGGAGACCGGAAUUCAGAUUGUCCAGAACUGUUAAAUCCCGUCGUAGCCACCA
DNA 1: CAATCTGAATTCCGGTCTCCC
DNA 2: TGGTGGCTACGACGGGATT
B2: UUAUCCU (DNA:RNA)
RNA: B1 RNA with A25U, G26U, A28U, U30C, G31U
DNA 1: CAATCTGAATTCCGGTCTCCC
DNA 2: TGGTGGCTACGACGGGATT
B3: CGAGACG (DNA:RNA)
RNA: B1 RNA with A25C, A28G, C29A, U30C
DNA 1: CAATCTGAATTCCGGTCTCCC
DNA 2: TGGTGGCTACGACGGGATT
B4: GCAAGCG (DNA:RNA)
RNA: B1 RNA with A25G, G26C, C29G, U30C
DNA 1: CAATCTGAATTCCGGTCTCCC
DNA 2: TGGTGGCTACGACGGGATT
B5: AAACUCG (DNA:RNA)
RNA: B1 RNA with G26A, A28C, C29U, U30C
DNA 1: CAATCTGAATTCCGGTCTCCC
DNA 2: TGGTGGCTACGACGGGATT
B6: CGUAACG (DNA:RNA)
RNA: B1 RNA with A25C, A27U, C29A, U30C
DNA 1: CAATCTGAATTCCGGTCTCCC
DNA 2: TGGTGGCTACGACGGGATT
B7: UAAUUAU (DNA:RNA)
RNA: B1 RNA with A25U, G26A, A28U, C29U, U30A, G31U
DNA 1: CAATCTGAATTCCGGTCTCCC
DNA 2: TGGTGGCTACGACGGGATT
B8: AACGGCC (DNA:RNA)
RNA: B1 RNA with G26A, A27C, A28G, C29G, U30C, G31C
DNA 1: CAATCTGAATTCCGGTCTCCC
DNA 2: TGGTGGCTACGACGGGATT
B9: CCUAAUA (DNA:RNA)
RNA: B1 RNA with A25C, G26C, A27U, C29A, G31A
DNA 1: CAATCTGAATTCCGGTCTCCC
DNA 2: TGGTGGCTACGACGGGATT
B10: AAUAGGG (DNA:RNA)
RNA: B1 RNA with G26A, A27U, C29G, U30G
DNA 1: CAATCTGAATTCCGGTCTCCC
DNA 2: TGGTGGCTACGACGGGATT
B11: UACCCUG (DNA:RNA)
RNA: B1 RNA with A25U, G26A, A27C, A28C
DNA 1: CAATCTGAATTCCGGTCTCCC
DNA 2: TGGTGGCTACGACGGGATT
B12: CUUUUGU (DNA:RNA)
RNA: GGGAGACCGGAAUUCAGAUUGUCCCUUUUGUUUAAAUCCCGUCGUAGCCACCA
DNA 1: CAATCTGAATTCCGGTCTCCC
DNA 2: TGGTGGCTACGACGGGATT
B13: CUACAAU (DNA:RNA)
RNA: B12 RNA with U27A, U28C, U29A, G30A
DNA 1: CAATCTGAATTCCGGTCTCCC
DNA 2: TGGTGGCTACGACGGGATT
B14: ACGCUUA (DNA:RNA)
RNA: B1 RNA with G26C, A27G, A28C, C29U, G31A
DNA 1: CAATCTGAATTCCGGTCTCCC
DNA 2: TGGTGGCTACGACGGGATT
B15: GGAAAUG (DNA:RNA)
RNA: B1 RNA with A25G, C29A
DNA 1: CAATCTGAATTCCGGTCTCCC
DNA 2: TGGTGGCTACGACGGGATT
B16: UUGCGCA (DNA:RNA)
RNA: B12 RNA with C25U, U27G, U28C, U29G, G30C, U31A
DNA 1: CAATCTGAATTCCGGTCTCCC
DNA 2: TGGTGGCTACGACGGGATT
B17: CUUCUCG (DNA:RNA)
RNA: B12 RNA with U28C, G30C, U31G
DNA 1: CAATCTGAATTCCGGTCTCCC
DNA 2: TGGTGGCTACGACGGGATT
B18: AAUAGGA (DNA:RNA)
RNA: B1 RNA with G26A, A27U, C29G, U30G, G31A
DNA 1: CAATCTGAATTCCGGTCTCCC
DNA 2: TGGTGGCTACGACGGGATT
B19: GUGCACU (DNA:RNA)
RNA: B12 RNA with C25G, U27G, U28C, U29A, G30C
DNA 1: CAATCTGAATTCCGGTCTCCC
DNA 2: TGGTGGCTACGACGGGATT
B20: GGGGUCA (DNA:RNA)
RNA: B1 RNA with A25G, A27G, A28G, C29U, U30C, G31A
DNA 1: CAATCTGAATTCCGGTCTCCC
DNA 2: TGGTGGCTACGACGGGATT

Substitutions are numbered along the chain they refer to; changes in the protein carry UniProt numbers. The list shows a part of the results.

In the assay the target is T1, RBFOX1 RRM. Briefly: EMSA; HiTS-Eq, 1 nM pool, 10 min; buffer printed only for the single-RNA assays: 10 mM Tris pH 7.5, 150 mM NaCl, 3.4 mM EDTA, 0.001% NP-40, 30 C. Particulars: tags: His6 N-terminal (pET28a); label: 5' 32P. The method in brief:
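A pool of RNA with 7 randomized nucleotides, 5′-radiolabelled and with DNA-annealed flanks, was equilibrated at 1 nM for 10 min in 50 µL with purified RbFox RRM, wild type or mutant, across increasing protein concentrations. Free RNA was separated by 8% native PAGE, excised, reverse-transcribed, barcoded by PCR and sequenced. Relative association constants were obtained from read-count changes of each RNA species versus the control reaction and normalised to the cognate motif.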
(In general: Mobility shift assays separate free from complexed probe on a gel.)
On to B1, for which the binding signal is 0.0109 KA relative to UGCAUGU.
For B2, the binding signal was 0.00375 KA relative to UGCAUGU.
The same measure for B3: 0.0104 KA relative to UGCAUGU; for B4: 0.0145 KA relative to UGCAUGU; for B5: 0.00346 KA relative to UGCAUGU.
In the case of B6, the binding signal is 0.0091 KA relative to UGCAUGU.
In the case of B7, the binding signal is 0.0077 KA relative to UGCAUGU.
The same measure for B8: 0.011 KA relative to UGCAUGU.
Take B9: the binding signal is 0.00095 KA relative to UGCAUGU.
The same measure for B10: 0.00107 KA relative to UGCAUGU.
The same measure for B11: 0.00795 KA relative to UGCAUGU.
The value for B12 was 0.0208 KA relative to UGCAUGU; that for B13 was 0.00174 KA relative to UGCAUGU; that for B14 was 0.00273 KA relative to UGCAUGU.
Turning to B15, the binding signal is 0.0124 KA relative to UGCAUGU.
The value for B16 was 0.0205 KA relative to UGCAUGU; that for B17 was 0.00824 KA relative to UGCAUGU; that for B18 was 0.000462 KA relative to UGCAUGU.
Take B19: the binding signal is 0.0223 KA relative to UGCAUGU.
B20: the binding signal was 0.0251 KA relative to UGCAUGU.
